# From the supplement of paper PMC8728848
# Some of the results follow.
# How the values were obtained:
# Assay in all cases: glycan array binding signal (z-score within array); higher = stronger binding
# Conditions in all cases: glycan notation: IUPAC condensed, linker removed
# [1] = target: Fuc(a1-3)[Gal(b1-4)]GlcNAc(b1-3)Gal(b1-4)[Fuc(a1-3)]GlcNAc
# Method in brief: (§1)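 The binding signal is a Z-score computed within each array and averaged over linkers. Arrays of the same protein sequence at different concentrations or buffers were also averaged together. Data originate from 3228 arrays in the Consortium for Functional Glycomics database, kept only where the protein sequence was available.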
# [2] = target: Fuc(a1-3)[Gal(b1-4)]GlcNAc(b1-3)Gal(b1-4)[Fuc(a1-3)]GlcNAc(b1-3)Gal(b1-4)[Fuc(a1-3)]GlcNAc
# Method in brief: as §1
# [3] = target: Fuc(a1-3)[Gal(b1-4)]GlcNAc(b1-3)GalNAc
# Method in brief: as §1
# [4] = target: Fuc(a1-3)[Gal(b1-4)]GlcNAc(b1-6)GalNAc
# Method in brief: as §1
# [5] = target: Fuc(a1-3)[Gal(b1-4)]GlcNAc(b1-6)[Gal(b1-3)GlcNAc(b1-3)]Gal(b1-4)Glc
# Method in brief: as §1
# [6] = target: Fuc(a1-3)[Gal(b1-4)]GlcNAc6S
# Method in brief: as §1
# [7] = target: Fuc(a1-3)[Gal3S(b1-4)]Glc
# Method in brief: as §1
# [8] = target: Fuc(a1-3)[Gal3S(b1-4)]GlcNAc
# Method in brief: as §1
# [9] = target: Fuc(a1-3)[Gal3S(b1-4)]GlcNAc6S
# Method in brief: as §1
# [10] = target: Fuc(a1-3)[GalNAc(b1-4)]GlcNAc
# Method in brief: as §1
# [11] = target: Fuc(a1-3)[GalNAc(b1-4)]GlcNAc6S
# Method in brief: as §1
# Fuc(a1-4)GlcNAc = target: Fuc(a1-4)GlcNAc
# Method in brief: as §1
# Fuc(b1-3)GlcNAc = target: Fuc(b1-3)GlcNAc
# Method in brief: as §1
# Gal(a1-2)Gal = target: Gal(a1-2)Gal
# Method in brief: as §1
# Gal(a1-3)Gal = target: Gal(a1-3)Gal
# Method in brief: as §1
# Gal(a1-3)Gal(b1-3)GlcNAc = target: Gal(a1-3)Gal(b1-3)GlcNAc
# Method in brief: as §1
# [12] = target: Gal(a1-3)Gal(b1-3)GlcNAc(b1-2)Man
# Method in brief: as §1
# [13] = target: Gal(a1-3)Gal(b1-3)GlcNAc(b1-2)Man(a1-3)[Gal(a1-3)Gal(b1-3)GlcNAc(b1-2)Man(a1-6)]Man(b1-4)GlcNAc(b1-4)GlcNAc
# Method in brief: as §1
# [14] = target: Gal(a1-3)Gal(b1-3)GlcNAc(b1-3)GalNAc
# Method in brief: as §1
# [15] = target: Gal(a1-3)Gal(b1-3)GlcNAc(b1-6)GalNAc
# Method in brief: as §1
# [16] = target: Gal(a1-3)Gal(b1-3)[Fuc(a1-4)]GlcNAc(b1-2)Man(a1-3)[Gal(a1-3)Gal(b1-3)[Fuc(a1-4)]GlcNAc(b1-2)Man(a1-6)]Man(b1-4)GlcNAc(b1-4)GlcNAc
# Method in brief: as §1
# Gal(a1-3)Gal(b1-4)Glc = target: Gal(a1-3)Gal(b1-4)Glc
# Method in brief: as §1
# Gal(a1-3)Gal(b1-4)GlcNAc = target: Gal(a1-3)Gal(b1-4)GlcNAc
# Method in brief: as §1
# [17] = target: Gal(a1-3)Gal(b1-4)GlcNAc(b1-2)Man
# Method in brief: as §1
# [18] = target: Gal(a1-3)Gal(b1-4)GlcNAc(b1-2)Man(a1-3)[Gal(a1-3)Gal(b1-4)GlcNAc(b1-2)Man(a1-6)]Man(b1-4)GlcNAc(b1-4)GlcNAc
# Method in brief: as §1
# [19] = target: Gal(a1-3)Gal(b1-4)GlcNAc(b1-3)GalNAc
# Method in brief: as §1
# [20] = target: Gal(a1-3)Gal(b1-4)GlcNAc(b1-6)GalNAc
# Method in brief: as §1
# [21] = target: Gal(a1-3)Gal(b1-4)[Fuc(a1-3)]GlcNAc
# Method in brief: as §1
# [22] = target: Gal(a1-3)Gal(b1-4)[Fuc(a1-3)]GlcNAc(b1-2)Man(a1-3)[Gal(a1-3)Gal(b1-4)[Fuc(a1-3)]GlcNAc(b1-2)Man(a1-6)]Man(b1-4)GlcNAc(b1-4)GlcNAc
# Method in brief: as §1
# Gal(a1-3)GalNAc = target: Gal(a1-3)GalNAc
# Method in brief: as §1
# [23] = target: Gal(a1-3)[Gal(a1-4)]Gal(b1-4)GlcNAc
# Method in brief: as §1
# [24] = target: Gal(a1-4)Gal(b1-3)GlcNAc(b1-2)Man(a1-3)[Gal(a1-4)Gal(b1-3)GlcNAc(b1-2)Man(a1-6)]Man(b1-4)GlcNAc(b1-4)GlcNAc
# Method in brief: as §1
# Gal(a1-4)Gal(b1-4)Glc = target: Gal(a1-4)Gal(b1-4)Glc
# Method in brief: as §1
# Gal(a1-4)Gal(b1-4)GlcNAc = target: Gal(a1-4)Gal(b1-4)GlcNAc
# Method in brief: as §1
# [25] = target: Gal(a1-4)Gal(b1-4)GlcNAc(b1-2)Man(a1-3)[Gal(a1-4)Gal(b1-4)GlcNAc(b1-2)Man(a1-6)]Man(b1-4)GlcNAc(b1-4)GlcNAc
# Method in brief: as §1
# [26] = target: Gal(a1-4)Gal(b1-4)GlcNAc(b1-3)Gal(b1-4)Glc
# Method in brief: as §1
# Gal(a1-4)GlcNAc = target: Gal(a1-4)GlcNAc
# Method in brief: as §1
# Gal(a1-6)Glc = target: Gal(a1-6)Glc
# Method in brief: as §1
binder,measurement,setting,value
PX14379A-bvu-539-28-539 (Bacteroides vulgatus) (protein) EPYSEIIEEDYVPTEADEIALLATTYSQLRFVMDWYGLFDLQEESGDVIVTPTRPNGWDDGGTYKQMHKHTWDNQQGQPQSIWDYCYKGIANANKILKRADEGFFTEESKPKVVAEVKGVRALWYSILCDTHGNIPIQTSFSEEVPVQSTRKQVFDFIINELKEVMPNLPTEVNKSTYGRLTQWGAKCLMARMYLNAGVYTGTPMWNECLEQCNDIINSGLFSLETNYTDIFKTENSGCVETIFAIPYDEVYNEGDNNGPVFGAHMKFLSSNSRKVFNMQTTPWGGSAANPQFINSYDPDDMRLKYTWLQGDQYSPDGVLITTFPNKLPSIYKTDTDDGYRVGKYEIKVGAKSLLSNDFPYFRYTEVLLMKAECLLRLGQNETEAAHIVSQIRERAFRESAHPEKATVDAAWLKGDTHINYGTLDEKGQIDDAGNTEVVELGGLYDEWGWEFAAEARRRTDMIRFGTYQKKSWFNHTPTANDLNGNSILFPIHLDHLNTNPNLQQNPGYAGK,glycan array binding signal (z-score),[1],-0.251
same,glycan array binding signal (z-score),[2],-0.164
same,glycan array binding signal (z-score),[3],-0.075
same,glycan array binding signal (z-score),[4],0.56
same,glycan array binding signal (z-score),[5],-0.44
same,glycan array binding signal (z-score),[6],0.955
same,glycan array binding signal (z-score),[7],-0.278
same,glycan array binding signal (z-score),[8],-0.117
same,glycan array binding signal (z-score),[9],0.033
same,glycan array binding signal (z-score),[10],0.137
same,glycan array binding signal (z-score),[11],-0.37
same,glycan array binding signal (z-score),Fuc(a1-4)GlcNAc,-0.18
same,glycan array binding signal (z-score),Fuc(b1-3)GlcNAc,-0.368
same,glycan array binding signal (z-score),Gal(a1-2)Gal,-0.24
same,glycan array binding signal (z-score),Gal(a1-3)Gal,-0.47
same,glycan array binding signal (z-score),Gal(a1-3)Gal(b1-3)GlcNAc,-0.085
same,glycan array binding signal (z-score),[12],-0.28
same,glycan array binding signal (z-score),[13],-0.096
same,glycan array binding signal (z-score),[14],-0.153
same,glycan array binding signal (z-score),[15],0.008
same,glycan array binding signal (z-score),[16],0.484
same,glycan array binding signal (z-score),Gal(a1-3)Gal(b1-4)Glc,-0.295
same,glycan array binding signal (z-score),Gal(a1-3)Gal(b1-4)GlcNAc,-0.52
same,glycan array binding signal (z-score),[17],-0.201
same,glycan array binding signal (z-score),[18],3
same,glycan array binding signal (z-score),[19],-0.341
same,glycan array binding signal (z-score),[20],-0.502
same,glycan array binding signal (z-score),[21],-0.416
same,glycan array binding signal (z-score),[22],2.63
same,glycan array binding signal (z-score),Gal(a1-3)GalNAc,-0.339
same,glycan array binding signal (z-score),[23],0.784
same,glycan array binding signal (z-score),[24],0.016
same,glycan array binding signal (z-score),Gal(a1-4)Gal(b1-4)Glc,-0.512
same,glycan array binding signal (z-score),Gal(a1-4)Gal(b1-4)GlcNAc,0.206
same,glycan array binding signal (z-score),[25],0.469
same,glycan array binding signal (z-score),[26],-0.391
same,glycan array binding signal (z-score),Gal(a1-4)GlcNAc,-0.226
same,glycan array binding signal (z-score),Gal(a1-6)Glc,-0.065
